Measurements from the supplement of paper PMC10126150.
Values marked as one replicate rest on one cluster of the flow cell; about a third of the high ones do not repeat.

Tested on: ATP
Assay: switch fluorescence ratio, 500 uM ATP over buffer (Cy3 cluster intensity, sum of 5 cycles each) (fold (ratio)); higher = stronger signal-on switching upon ATP binding; sequences stand for … in TCGTCGGCAGCGTCAGATGTGTATAAGAGACAGTTTTTTTTTTTTTTTTTTTTTTTTT…TC
Settings: aptamer strand: ATP DNA aptamer (quencher-CACCTGGGGGAGTATTGCGGAGGAAGG + anchor), 100 nM annealed; ATP concentration: 500 uM; one replicate
Outline: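 Per cluster, summed Cy3 intensity from the target cycles was divided by that from the buffer cycles to give the fluorescence ratio, then averaged per switch-domain sequence. Clusters outside 100-1000 RFU were excluded. The Cy3-labelled switching-strand clusters, on a modified Illumina MiSeq flow-cell, were annealed to 100 nM quencher-labelled ATP aptamer and imaged in selection buffer, then after 15 min with 500 uM ATP at 22 °C, for five cycles with NaOH stripping and re-annealing between them.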
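Further: ATP exposure 15 min at 22 °C before imaging.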

Row | Sequence | switch fluorescence ratio
1 | GATCGTTATC | 1.01
2 | GGCCGGACCA | 1.09
3 | TAACCAGGCT | 0.984
4 | TGGTGGATCC | 0.999
5 | TACACTGGCC | 0.931
6 | TGTTGGTTGG | 0.969
7 | ATCCGGAGTA | 1.43
8 | GCGTTCATGC | 1.01
9 | TAGGGCATCC | 1.06
10 | ACATGTGAAG | 1.02
11 | CCAACGGGTC | 1.14
12 | TTTTGATAGG | 0.945
13 | GGACAGGGAG | 1.01
14 | CTTTCGTGCG | 0.99
15 | CCCAGAGTTA | 1.14
16 | AGCAAATCGG | 1.05
17 | GTTATAATGT | 0.99
18 | TCTTAAACGC | 1.45
19 | ATTACAATTG | 1.01
20 | ATTTGTATAA | 0.943
21 | ACTGAGTCCC | 1.14
22 | TGGTTCCATA | 0.933
23 | AACACTGGCG | 1.03
24 | AATCAGGGG | 1.06
25 | GGGTGTATGA | 1.02

Row | Sequence | switch fluorescence ratio
26 | AAATGTGGAT | 1.02
27 | TAAGTCGGC | 0.97
28 | GAAAATCGAG | 1
29 | CATTGACGAG | 0.974
30 | TTGATTGTCG | 1.04
31 | GATGTTGTCT | 1.06
32 | AAGTCGAAAT | 1
33 | TTGTAAAGCT | 1.13
34 | ATATCGCTGT | 1.01
35 | ACTACATATA | 1.05
36 | TCACGAATTG | 0.962
37 | GGTATGTTTC | 1.01
38 | TATGTGTCGC | 1
39 | GGCCCGAATT | 1.03
40 | CTGCCTCGAA | 1.04
41 | ATACCAAATG | 1.02
42 | GGATTCGGGA | 1
43 | ACTAGGTCG | 1.04
44 | ACAGTGCGGG | 0.974
45 | TTAAGCGTTG | 0.953
46 | CTCTTTTTGG | 0.996
47 | TCGTCCGTTA | 1.36
48 | TGCTCGACGT | 0.98
49 | CGATTCTACC | 1.1
50 | TCTAAGACTG | 1.02

Row | Sequence | switch fluorescence ratio
51 | TACCAAGTTT | 1.02
52 | GGTTTAGAGT | 1.01
53 | GTAGTACTTG | 1.04
54 | TGATAGATAG | 0.981
55 | TTGCGGGTGT | 1.01
56 | GATTTTAGGT | 1.03
57 | ATTCGGGTAT | 0.984
58 | ACTCTGGGTA | 0.981
59 | ATCGCACCGT | 1.06
60 | TCTGCATGCA | 1.01
61 | GGCCAAGATG | 0.97
62 | GGAAATTG | 1.05
63 | CAGCTCCAGG | 1.49
64 | TTGAAGGAAT | 0.99
65 | CCTAGTTCGA | 0.972
66 | TAGCGAGGAA | 0.971
67 | TGTTAGCCTG | 0.995
68 | CACATGTAGT | 0.983
69 | CGTGTGATCC | 1.02
70 | GCGTAGAACT | 0.993
71 | TACTCACGGT | 1.39
72 | AGAGGGAGAG | 0.998
73 | CCGGCTATGA | 1.3
74 | TTTTTCGGTC | 0.959
75 | AGTCGTCCCG | 0.995

Row | Sequence | switch fluorescence ratio
76 | TTGGCAACCG | 1.05
77 | GCTGGAGCAA | 3.6
78 | GCACTCAATG | 0.988
79 | TGGCTCGGCC | 1.06
80 | GCTCGTATCC | 0.958
81 | GATGTCTTTA | 0.964
82 | ACCCACTTGG | 1.21
83 | TGCTGACGAG | 0.987
84 | GGTGAAGGCC | 1.03
85 | AGGACTGCAA | 2.07
86 | TATTTTCGCC | 0.992
87 | TGCGAACCTC | 1.04
88 | ACGAGTGCAA | 1.93
89 | GAATGAGGAG | 0.965
90 | GGTCAGGCTA | 0.961
91 | GTGCATGGTT | 1.01
92 | CCACTTCATT | 1.15
93 | CGCGTTCGGC | 1
94 | CGTAGGCCTC | 1
95 | GGAGGGCGCG | 1.02
96 | CCAGCTATAG | 3.28
97 | GTTTGAACTT | 1.04
98 | TTCACGGGGA | 1.03
99 | AACTGTTGAG | 1
100 | GTGCATAAGA | 1.01

Row | Sequence | switch fluorescence ratio
101 | CCATCCGCAC | 2.63
102 | TGCAGGACCA | 1
103 | AGAGCTCTT | 0.965
104 | ACTCGCGATG | 1.19
105 | TTATACCCCC | 1.73
106 | TACGTCCATC | 1.03
107 | GTGCGTAGTG | 1.01
108 | GGAAGTGCTC | 1.03
109 | TCATGTGTTA | 0.988
110 | GAGTGATATG | 1.01
111 | ACAGTAATTT | 1.09
112 | AAGCGTTAGA | 1.04
113 | TCTAAGACCC | 0.993
114 | AGATGCACGG | 1.08
115 | GTCATCGAAG | 0.994
116 | GAAAAACCAC | 1.15
117 | CGTCTGAAGA | 0.986
118 | TGTGGATATG | 1.02
119 | GTTGGGATCT | 0.979
120 | TCCGTGAATT | 1.03
121 | TAATCGGTAA | 0.99
122 | GATACCGAGG | 1.02
123 | TCTGTAGGCA | 0.967
124 | CAGTAAGTCA | 1
125 | TCACTGGG | 1

Row | Sequence | switch fluorescence ratio
126 | ATAAGCTGCC | 1.54
127 | CCGGGTTCAG | 1.07
128 | TTAAGTCCCG | 1
129 | CATTGCAAGT | 1.06
130 | TCTGATGGAG | 1.04
131 | TTTGCGTTG | 0.979
132 | CCGTAATTCT | 4.11
133 | TCATTCCTAA | 1.01
134 | TTTGCGGTTC | 1.57
135 | TCCAACCTTA | 0.967
136 | TAATGCTAGC | 1.01
137 | TTAAGTGGTA | 1
138 | CTAGCGCCAT | 1.12
139 | AGAGTCGGCC | 0.991
140 | AAAGTTAGC | 0.976
141 | TGGGGGTTT | 1.09
142 | ATTTACGATT | 1.14
143 | GTGTGTTATT | 0.993
144 | ACTTACCTTT | 1.13
145 | TCAGGCGTAG | 0.958
146 | TTATGACCAT | 1.01
147 | CGTTATTGTT | 0.976
148 | GAATGTTATG | 1
149 | TTCGCGAGAG | 1.59
150 | CCACGGGGAA | 1.04

Row | Sequence | switch fluorescence ratio
151 | AGATGCGGG | 1.01
152 | GAGCCGTTCG | 0.98
153 | CCTCTATGGC | 1.54
154 | CCTGATCTGT | 1.02
155 | GAATTCCTAA | 0.977
156 | CCTAACGCCA | 4.77
157 | GTAGTTGCTG | 1.03
158 | GATACGAGGT | 1.01
159 | ACATACGTCT | 1.3
160 | CGTGTCTTGT | 1
161 | CTCTATTTCA | 1.03
162 | ACAGTGACTT | 1.09
163 | AGTTCAGTTT | 0.979
164 | CCTCGGATTA | 1.71
165 | TCGGGATCTC | 1.52
166 | AAGTGGCTCG | 0.998
167 | TATAAAAG | 1.02
168 | GCTTTATTTG | 1.01
169 | GCCCATAATA | 1.03
170 | GAGCAGTCTT | 0.989
171 | AGATTCCGTA | 0.966
172 | TTGCCGAGTC | 0.965
173 | TCCTGACTCC | 2.75
174 | ATTGAGATAC | 1.04
175 | TTAGGCTTAT | 0.951

Row | Sequence | switch fluorescence ratio
176 | ACTGAAAAAA | 1.17
177 | CCCATAGTAA | 1.27
178 | TAGGCGTACT | 1.1
179 | TCGGGTACAC | 0.986
180 | AACCGTGCTA | 1.09
181 | TTCGGCTTTG | 1.03
182 | GGCCGAGGGA | 1
183 | GCAACAAATA | 1.01
184 | CACTAAGGGG | 1.07
185 | AAGAGCAAGA | 1.29
186 | CTGATCAGGG | 0.956
187 | GTCGCCAGGT | 1.06
188 | TCTCAATGAT | 1.01
189 | TCTAGTATGT | 0.994
190 | ACCGTGTCGA | 1.03
191 | ATGTGTCGGA | 0.98
192 | TCCAAGAATT | 0.94
193 | TTCAACACTG | 0.99
194 | TTCTTGTGGT | 1.04
195 | TCTAAATTTT | 0.959
196 | TGGCTTCCGG | 1.14
197 | GATAGGCGC | 1.03
198 | CAATAGCACT | 1.12
199 | CATACCGGTA | 0.999
200 | AGCGTTTTGC | 0.941
